# Measured values: the supplement of paper PMC8728848
# The list shows a part of the results.
# B1: Epa7 (Candida glabrata), Q6DTM6_CANGB (protein)
# chain: MGSSHHHHHHSSGLVPRGSHMKDDYSSFLSNNNLGWTDPTEFPLGCSPNVTTPKNGLSMELYSYDLRKNGSYPCWDAAYLDPNYPRTGYKSHRLLAKVDGVTGNINFYYHATKGCTPEIDHLPASYNYPKPLTMTNFTMLLYGYFKPKVTGYHTFTISADDLLFVNFGAGNAFDCCKRESSADDFGNYQAYAVWGSQTAKDDLTVHLDAGLYYPIRIFFNNREYDAELSLTLKTESDSNPVIDFSDYFYSFDDTKDGCPGLVSYDTS
# Key:
# Assay in all cases: glycan array binding signal (z-score within array); higher = stronger binding
# Conditions in all cases: glycan notation: IUPAC condensed, linker removed
# [1] = molecular target: GlcNAc(b1-3)Gal(b1-4)GlcNAc(b1-2)Man(a1-3)[GlcNAc(b1-3)Gal(b1-4)GlcNAc(b1-2)Man(a1-6)]Man(b1-4)GlcNAc(b1-4)[Fuc(a1-6)]GlcNAc
# How it was run: (§1)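 Negative Z-scores can be read as non-binding. The Z-score is calculated within each array and then averaged across arrays of one protein sequence at different concentrations or buffers and across linkers. Arrays, 3228 in all, were curated from the Consortium for Functional Glycomics database and kept only where the protein sequence was available.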
# [2] = molecular target: GlcNAc(b1-3)Gal(b1-4)GlcNAc(b1-2)[GlcNAc(b1-3)Gal(b1-4)GlcNAc(b1-6)]Man(a1-6)[GlcNAc(b1-3)Gal(b1-4)GlcNAc(b1-2)Man(a1-3)]Man(b1-4)GlcNAc(b1-4)GlcNAc
# How it was run: as §1
# [3] = molecular target: GlcNAc(b1-3)Gal(b1-4)GlcNAc(b1-3)Gal(b1-4)GlcNAc
# How it was run: as §1
# [4] = molecular target: GlcNAc(b1-3)Gal(b1-4)GlcNAc(b1-3)Gal(b1-4)GlcNAc(b1-2)Man(a1-3)[GlcNAc(b1-3)Gal(b1-4)GlcNAc(b1-3)Gal(b1-4)GlcNAc(b1-2)Man(a1-6)]Man(b1-4)GlcNAc(b1-4)GlcNAc
# How it was run: as §1
# [5] = molecular target: GlcNAc(b1-3)Gal(b1-4)GlcNAc(b1-3)Gal(b1-4)GlcNAc(b1-2)Man(a1-3)[GlcNAc(b1-3)Gal(b1-4)GlcNAc(b1-3)Gal(b1-4)GlcNAc(b1-2)Man(a1-6)]Man(b1-4)GlcNAc(b1-4)[Fuc(a1-6)]GlcNAc
# How it was run: as §1
# [6] = molecular target: GlcNAc(b1-3)Gal(b1-4)GlcNAc(b1-3)Gal(b1-4)GlcNAc(b1-2)[GlcNAc(b1-3)Gal(b1-4)GlcNAc(b1-3)Gal(b1-4)GlcNAc(b1-6)]Man(a1-6)[GlcNAc(b1-3)Gal(b1-4)GlcNAc(b1-3)Gal(b1-4)GlcNAc(b1-2)Man(a1-3)]Man(b1-4)GlcNAc(b1-4)[Fuc(a1-6)]GlcNAc
# How it was run: as §1
# [7] = molecular target: GlcNAc(b1-3)Gal(b1-4)GlcNAc(b1-3)Gal(b1-4)GlcNAc(b1-3)Gal(b1-4)GlcNAc(b1-2)Man(a1-3)[GlcNAc(b1-3)Gal(b1-4)GlcNAc(b1-3)Gal(b1-4)GlcNAc(b1-3)Gal(b1-4)GlcNAc(b1-2)Man(a1-6)]Man(b1-4)GlcNAc(b1-4)GlcNAc
# How it was run: as §1
# [8] = molecular target: GlcNAc(b1-3)Gal(b1-4)GlcNAc(b1-3)Gal(b1-4)GlcNAc(b1-3)Gal(b1-4)GlcNAc(b1-2)Man(a1-3)[GlcNAc(b1-3)Gal(b1-4)GlcNAc(b1-3)Gal(b1-4)GlcNAc(b1-3)Gal(b1-4)GlcNAc(b1-2)Man(a1-6)]Man(b1-4)GlcNAc(b1-4)[Fuc(a1-6)]GlcNAc
# How it was run: as §1
# [9] = molecular target: GlcNAc(b1-3)Gal(b1-4)GlcNAc(b1-3)Gal(b1-4)GlcNAc(b1-3)Gal(b1-4)GlcNAc(b1-2)[GlcNAc(b1-3)Gal(b1-4)GlcNAc(b1-3)Gal(b1-4)GlcNAc(b1-3)Gal(b1-4)GlcNAc(b1-6)]Man(a1-6)[GlcNAc(b1-3)Gal(b1-4)GlcNAc(b1-3)Gal(b1-4)GlcNAc(b1-3)Gal(b1-4)GlcNAc(b1-2)Man(a1-3)]Man(b1-4)GlcNAc(b1-4)[Fuc(a1-6)]GlcNAc
# How it was run: as §1
# [10] = molecular target: GlcNAc(b1-3)Gal(b1-4)GlcNAc(b1-3)Gal(b1-4)GlcNAc(b1-3)Gal(b1-4)GlcNAc(b1-3)Gal(b1-4)GlcNAc(b1-2)Man(a1-3)[GlcNAc(b1-3)Gal(b1-4)GlcNAc(b1-3)Gal(b1-4)GlcNAc(b1-3)Gal(b1-4)GlcNAc(b1-3)Gal(b1-4)GlcNAc(b1-2)Man(a1-6)]Man(b1-4)GlcNAc(b1-4)GlcNAc
# How it was run: as §1
# [11] = molecular target: GlcNAc(b1-3)Gal(b1-4)GlcNAc(b1-3)Gal(b1-4)GlcNAc(b1-3)Gal(b1-4)GlcNAc(b1-3)Gal(b1-4)GlcNAc(b1-2)Man(a1-3)[GlcNAc(b1-3)Gal(b1-4)GlcNAc(b1-3)Gal(b1-4)GlcNAc(b1-3)Gal(b1-4)GlcNAc(b1-3)Gal(b1-4)GlcNAc(b1-2)Man(a1-6)]Man(b1-4)GlcNAc(b1-4)[Fuc(a1-6)]GlcNAc
# How it was run: as §1
# [12] = molecular target: GlcNAc(b1-3)Gal(b1-4)GlcNAc(b1-3)Gal(b1-4)GlcNAc(b1-3)Gal(b1-4)GlcNAc(b1-3)Gal(b1-4)GlcNAc(b1-2)[GlcNAc(b1-3)Gal(b1-4)GlcNAc(b1-3)Gal(b1-4)GlcNAc(b1-3)Gal(b1-4)GlcNAc(b1-3)Gal(b1-4)GlcNAc(b1-6)]Man(a1-6)[GlcNAc(b1-3)Gal(b1-4)GlcNAc(b1-3)Gal(b1-4)GlcNAc(b1-3)Gal(b1-4)GlcNAc(b1-3)Gal(b1-4)GlcNAc(b1-2)Man(a1-3)]Man(b1-4)GlcNAc(b1-4)[Fuc(a1-6)]GlcNAc
# How it was run: as §1
# [13] = molecular target: GlcNAc(b1-3)Gal(b1-4)GlcNAc(b1-3)Gal(b1-4)GlcNAc(b1-3)GalNAc
# How it was run: as §1
# [14] = molecular target: GlcNAc(b1-3)Gal(b1-4)GlcNAc(b1-3)GalNAc
# How it was run: as §1
# [15] = molecular target: GlcNAc(b1-3)Gal(b1-4)GlcNAc(b1-3)[GlcNAc(b1-3)Gal(b1-4)GlcNAc(b1-3)]GalNAc
# How it was run: as §1
# [16] = molecular target: GlcNAc(b1-3)Gal(b1-4)GlcNAc(b1-6)[Gal(b1-3)]GalNAc
# How it was run: as §1
# [17] = molecular target: GlcNAc(b1-3)Gal(b1-4)GlcNAc(b1-6)[GlcNAc(b1-3)Gal(b1-3)]GalNAc
# How it was run: as §1
# [18] = molecular target: GlcNAc(b1-3)Gal(b1-4)GlcNAc(b1-6)[GlcNAc(b1-3)]Gal(b1-4)GlcNAc
# How it was run: as §1
# GlcNAc(b1-3)GalNAc = molecular target: GlcNAc(b1-3)GalNAc
# How it was run: as §1
# GlcNAc(b1-3)Man = molecular target: GlcNAc(b1-3)Man
# How it was run: as §1
# [19] = molecular target: GlcNAc(b1-3)[GlcNAc(b1-4)][GlcNAc(b1-6)]GlcNAc
# How it was run: as §1
# [20] = molecular target: GlcNAc(b1-3)[GlcNAc(b1-6)]Gal(b1-4)GlcNAc
# How it was run: as §1
# [21] = molecular target: GlcNAc(b1-3)[GlcNAc(b1-6)]GalNAc
# How it was run: as §1
# [22] = molecular target: GlcNAc(b1-3)[GlcNAc(b1-6)]GlcNAc
# How it was run: as §1
# [23] = molecular target: GlcNAc(b1-4)Gal(b1-4)GlcNAc
# How it was run: as §1
# GlcNAc(b1-4)GlcNAc = molecular target: GlcNAc(b1-4)GlcNAc
# How it was run: as §1
# [24] = molecular target: GlcNAc(b1-4)GlcNAc(b1-4)GlcNAc
# How it was run: as §1
# [25] = molecular target: GlcNAc(b1-4)GlcNAc(b1-4)GlcNAc(b1-4)GlcNAc(b1-4)GlcNAc
# How it was run: as §1
# [26] = molecular target: GlcNAc(b1-4)GlcNAc(b1-4)GlcNAc(b1-4)GlcNAc(b1-4)GlcNAc(b1-4)GlcNAc
# How it was run: as §1
# [27] = molecular target: GlcNAc(b1-4)[GlcNAc(b1-6)]GalNAc
# How it was run: as §1
# [28] = molecular target: GlcNAc(b1-6)Gal(b1-4)GlcNAc
# How it was run: as §1
# GlcNAc(b1-6)GalNAc = molecular target: GlcNAc(b1-6)GalNAc
# How it was run: as §1
# [29] = molecular target: GlcNAc6S(b1-3)Gal(b1-4)GlcNAc
# How it was run: as §1
# Kdn(a2-3)Gal(b1-3)GalNAc = molecular target: Kdn(a2-3)Gal(b1-3)GalNAc
# How it was run: as §1
# Kdn(a2-3)Gal(b1-3)GlcNAc = molecular target: Kdn(a2-3)Gal(b1-3)GlcNAc
# How it was run: as §1
# Kdn(a2-3)Gal(b1-4)Glc = molecular target: Kdn(a2-3)Gal(b1-4)Glc
# How it was run: as §1
# Kdn(a2-3)Gal(b1-4)GlcNAc = molecular target: Kdn(a2-3)Gal(b1-4)GlcNAc
# How it was run: as §1
# [30] = molecular target: Kdn(a2-3)Gal(b1-4)[Fuc(a1-3)]GlcNAc
# How it was run: as §1
# Kdn(a2-6)Gal(b1-4)GlcNAc = molecular target: Kdn(a2-6)Gal(b1-4)GlcNAc
# How it was run: as §1
# [31] = molecular target: Man(a1-2)Man(a1-2)Man(a1-3)Man
# How it was run: as §1
# [32] = molecular target: Man(a1-2)Man(a1-2)Man(a1-3)[Man(a1-2)Man(a1-3)[Man(a1-2)Man(a1-6)]Man(a1-6)]Man(b1-4)GlcNAc(b1-4)GlcNAc
# How it was run: as §1
# [33] = molecular target: Man(a1-2)Man(a1-2)Man(a1-3)[Man(a1-2)Man(a1-6)[Man(a1-3)]Man(a1-6)]Man(b1-4)GlcNAc(b1-4)GlcNAc
# How it was run: as §1
# [34] = molecular target: Man(a1-2)Man(a1-2)Man(a1-6)[Man(a1-3)]Man
# How it was run: as §1
# Man(a1-2)Man(a1-3)Man = molecular target: Man(a1-2)Man(a1-3)Man
# How it was run: as §1
# [35] = molecular target: Man(a1-2)Man(a1-3)[Man(a1-2)Man(a1-6)]Man
# How it was run: as §1
binder,measurement,setting,value
B1,glycan array binding signal (z-score),[1],-0.207
same,glycan array binding signal (z-score),[2],-0.114
same,glycan array binding signal (z-score),[3],-0.259
same,glycan array binding signal (z-score),[4],-0.208
same,glycan array binding signal (z-score),[5],-0.233
same,glycan array binding signal (z-score),[6],-0.224
same,glycan array binding signal (z-score),[7],-0.235
same,glycan array binding signal (z-score),[8],-0.226
same,glycan array binding signal (z-score),[9],-0.229
same,glycan array binding signal (z-score),[10],-0.233
same,glycan array binding signal (z-score),[11],-0.21
same,glycan array binding signal (z-score),[12],-0.234
same,glycan array binding signal (z-score),[13],-0.221
same,glycan array binding signal (z-score),[14],-0.24
same,glycan array binding signal (z-score),[15],-0.225
same,glycan array binding signal (z-score),[16],2.11
same,glycan array binding signal (z-score),[17],-0.195
same,glycan array binding signal (z-score),[18],-0.242
same,glycan array binding signal (z-score),GlcNAc(b1-3)GalNAc,-0.247
same,glycan array binding signal (z-score),GlcNAc(b1-3)Man,-0.232
same,glycan array binding signal (z-score),[19],-0.261
same,glycan array binding signal (z-score),[20],-0.26
same,glycan array binding signal (z-score),[21],-0.231
same,glycan array binding signal (z-score),[22],-0.28
same,glycan array binding signal (z-score),[23],-0.261
same,glycan array binding signal (z-score),GlcNAc(b1-4)GlcNAc,-0.23
same,glycan array binding signal (z-score),[24],-0.258
same,glycan array binding signal (z-score),[25],-0.252
same,glycan array binding signal (z-score),[26],-0.254
same,glycan array binding signal (z-score),[27],-0.258
same,glycan array binding signal (z-score),[28],-0.139
same,glycan array binding signal (z-score),GlcNAc(b1-6)GalNAc,-0.248
same,glycan array binding signal (z-score),[29],0.109
same,glycan array binding signal (z-score),Kdn(a2-3)Gal(b1-3)GalNAc,-0.192
same,glycan array binding signal (z-score),Kdn(a2-3)Gal(b1-3)GlcNAc,-0.238
same,glycan array binding signal (z-score),Kdn(a2-3)Gal(b1-4)Glc,-0.136
same,glycan array binding signal (z-score),Kdn(a2-3)Gal(b1-4)GlcNAc,-0.226
same,glycan array binding signal (z-score),[30],-0.076
same,glycan array binding signal (z-score),Kdn(a2-6)Gal(b1-4)GlcNAc,-0.228
same,glycan array binding signal (z-score),[31],-0.244
same,glycan array binding signal (z-score),[32],-0.135
same,glycan array binding signal (z-score),[33],-0.285
same,glycan array binding signal (z-score),[34],-0.094
same,glycan array binding signal (z-score),Man(a1-2)Man(a1-3)Man,-0.258
same,glycan array binding signal (z-score),[35],-0.261
